From PubChem BioAssay AID588855 (National Center for Advancing Translational Sciences (NCATS), 2011)
“And” between values parts separate entries of the source, which are not always exact repeats. Equal entries are not always repeated. Out of some 410,000 compounds screened, about 5,000 (1.2%) were called active. Inconclusive means that the source gave no clear call. Such entries were picked first, then a sample of the others. The call rests on the fitted dose curve; in most records, active means well fitted inhibition curve with a large enough effect; inconclusive means small, poorly fitted or top-dose-only effect; inactive means no such curve, though single readings can be large or run the other way. Where the call is inconclusive, the potency comes from a doubtful curve fit.

Assay: qHTS for Inhibitors of TGF-b; further: nearly all actives have a fitted effect of over 65% in size
Details: HepG2 CAGA-GFP TGF-b/SMAD3 reporter, GFP fluorescence, 18 h, TGF-beta stimulated, 500 pg/mL final; series mostly up to 46.1 µM; activity, negative = inhibition: at the top concentration
Method in brief: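 TGF-beta reporter screen: HEPG2 CAGA-GFP, 1% FBS, 500 pg/mL TGF-beta final, 18 h; per-cell GFP summed per well; curves fitted and categorized by class.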
On the % scale 0 is the no-effect control and ±100 the full control effect; potency means the concentration at half of the fitted maximal effect; tags describe the fitted curve by direction and shape.

Row | Compound | Potency | activity, negative = inhibition
1 | Cc1ccccc1-n1nnnc1SCC(=O)Nc1ccc(N2CCN(C)CC2)cc1 | inconclusive: 7.94 µM [inhibitor, partial curve, poor fit] | –
2 | CCCc1nc2c(=O)n(C)c(=O)nc-2n(C)n1 | active: 1.12 µM | –
3 | Cc1cc(C)n2cc(CSc3nc4cc(Cl)ccc4o3)nc2n1 | inconclusive: 3.16 µM [inhibitor, single point] | –
4 | Cc1ccc(C(=O)CCS(=O)(=O)c2ccc(Cl)cc2)cc1 | inconclusive: 35.5 µM [inhibitor, single point] | –
5 | O=C(c1ccco1)N1CCN(C(=O)c2ccc(COc3ccc4c(c3)CCC4)o2)CC1 | – | inactive: -0.561%
6 | Cc1cc(C)n(CCc2nc3c4ccccc4nc(N4CCN(c5ccccc5)CC4)n3n2)n1 | – | inactive: -8.82%
7 | O=C(Nc1ccc(Br)c(C(F)(F)F)c1)c1ccccc1 | inconclusive: 35.5 µM [inhibitor, single point] | –
8 | Clc1ccc(/C=N/Nc2ncnc3ccccc23)cc1Cl | inconclusive: 3.55 µM [inhibitor, partial curve, poor fit] | –
9 | O=C(C1CCN(c2ncnc3c2nc2n3CCCCC2)CC1)N1CCN(c2cccc(Cl)c2)CC1 | inconclusive: 10 µM [inhibitor, partial curve] and inconclusive: 35.5 µM [inhibitor, single point] | –
10 | COc1ccc([C@H]2N[C@]3(CCCN(Cc4ccccc4)C3=O)[C@H]3C(=O)N(Cc4ccccc4)C(=O)[C@@H]23)cc1 | inconclusive: 0.501 µM [inhibitor, partial curve, poor fit] | –
11 | CC1=NN(C(=O)c2csc(C(C)C)c2)C(O)(C(F)(F)F)C1 (configuration not stated) | inconclusive: 25.1 µM [inhibitor, single point] | –
12 | CCCCc1nn2c(=O)cc(COC(=O)c3ccc(NC(=O)c4ccccc4C)cc3)nc2s1 | inconclusive: 12.6 µM [inhibitor, partial curve] | –
13 | Cc1ccc(CNS(=O)(=O)c2ccc3[nH]c4c(c3c2)CCCC4)cc1 | inconclusive: 35.5 µM [inhibitor, single point] | –
14 | Nc1nc(N)c(Br)c(Nc2ccc(Cl)c(Cl)c2)n1 | – | inactive: -18%
15 | CS(=O)(=O)N(CC(=O)Nc1ccccc1-c1ccccc1)c1ccc(F)cc1 | inconclusive: 0.708 µM [inhibitor, full curve] | –
16 | Cn1c2ccccc2c(=O)c2ccc(C#Cc3ccccn3)cc21 | inconclusive: 28.2 µM [inhibitor, single point] | –
17 | COc1ccc2cc(C)c3nnc(SCC(=O)Nc4nc(-c5ccccc5)cs4)n3c2c1 | – | inactive: -17.6%
18 | Cc1nc(C)c(-c2ccc(SCC(=O)Nc3cccc(Cl)c3)nn2)s1 | inconclusive: 7.08 µM [inhibitor, partial curve, poor fit] | –
19 | CCOC(=O)C1CCCN(c2c(Nc3cc(C)cc(C)c3)c(=O)c2=O)C1 (configuration not stated) | inconclusive: 6.31 µM [inhibitor, single point] | –
20 | Cc1ccc(C)c(SCC(=O)Nc2cccc(S(=O)(=O)NC3=NCCCCC3)c2)c1 | – | inactive: -19.8%
21 | COc1cccc(-c2cc3nc4c(c(N5CCC6(CC5)OCCO6)n3n2)CCC4)c1 | – | inactive: 4.25%
22 | O=C(COc1ccc(CNC[C@H]2O[C@@H](n3ccc(=O)[nH]c3=O)[C@H](O)[C@@H]2O)cc1)Nc1ccccn1 | inconclusive: 35.5 µM [inhibitor, single point] | –
23 | CCCSc1nnc(-c2cccc(S(=O)(=O)N(C)C)c2)n1-c1cc(OC)ccc1OC | inconclusive: 10 µM [inhibitor, partial curve, poor fit] | –

Row | Compound | Potency | activity, negative = inhibition
24 | C[C@@H]1CN([C@@H](C)CO)C(=O)Cc2cc(NC(=O)Nc3cccc4ccccc34)ccc2O[C@@H]1CN(C)Cc1ccc(C(F)(F)F)cc1 | inconclusive: 35.5 µM [inhibitor, partial curve, poor fit] | –
25 | COc1ccc(-c2cc(NC(C)=O)c3ncc(-c4ccccc4)n3c2)c(OC)c1 | inconclusive: 10 µM [inhibitor, partial curve, poor fit] | –
26 | COc1ccc(S(=O)(=O)N2CCCCC2)cc1NC(=O)CNc1ccc(F)cc1C | – | inactive: 2.46%
27 | Cc1ccc(S(=O)(=O)c2ccc([N+](=O)[O-])o2)cc1 | active: 10 µM | –
28 | CC1(c2ccccc2)CCC(=O)NC1 (configuration not stated) | inconclusive: 6.31 µM [inhibitor, single point] | –
29 | Cc1nc(-c2cccc(NC(=O)Nc3ccc([N+](=O)[O-])cc3)c2)no1 | inconclusive: 3.16 µM [inhibitor, full curve, poor fit] | –
30 | Fc1cc2[nH]c(=S)[nH]c2cc1Cl | – | inactive: 7.68%
31 | CCCc1cc(=O)oc2c3c(ccc12)OCN(Cc1ccc(OC)cc1)C3 | – | inactive: -2.48%
32 | O=C(O)c1cccc(-n2sc3ccccc3c2=O)c1 | inconclusive: 0.631 µM [inhibitor, full curve, poor fit] | –
33 | C/C(=N\NC(=O)c1cc2ccccc2cc1O)c1ccc(C)o1 | inconclusive: 35.5 µM [inhibitor, single point] | –
34 | O=C(NCCc1ccccc1)c1coc(=O)c(Br)c1 | inconclusive: 31.6 µM [inhibitor, single point] | –
35 | O=C(CC1(O)C(=O)Nc2cc(Cl)cc(Cl)c21)c1ccccc1O (configuration not stated) | inconclusive: 15.8 µM [inhibitor, partial curve, poor fit] | –
36 | CC(Sc1nnc(NC2CCCCC2)s1)C(=O)Nc1ccc2c(c1)C(=O)c1ccccc1C2=O (configuration not stated) | inconclusive: 1 µM [inhibitor, full curve] | –
37 | COC(=O)CCN(C1CCCCC1)S(=O)(=O)c1ccc(S(=O)(=O)N2CCCCC2)cc1 | – | inactive: 2.92%
38 | CCCSc1nnc(CSc2nc3ccccc3s2)n1-c1ccccc1 | inconclusive: 35.5 µM [inhibitor, single point] | –
39 | Fc1cccc(F)c1-n1c(CN2CCOCC2)csc1=S | inconclusive: 4.47 µM [inhibitor, full curve, poor fit] | –
40 | c1coc(-c2nc3ccccc3nc2-c2ccco2)c1 | – | inactive: -1.94%
41 | COc1ccc(NC(=O)CSc2nncn3c2cc2oc(C)cc23)cc1OC | inconclusive: 14.1 µM [inhibitor, single point] | –
42 | CCc1nc2ccc(C(=O)Nc3ccc(NC(C)=O)cc3)cn2c1N(C)CCC(C)C | inconclusive: 20 µM [inhibitor, single point] | –
43 | O=C(NCC1CCCO1)c1ccc(C(=O)NCC2CCCO2)cc1 (configuration not stated) | – | inactive: 7.06%
44 | Nc1c(-c2cccs2)nc2ccccn12 | inconclusive: 20 µM [inhibitor, partial curve, poor fit] | –
45 | CCNC(=O)N1CCCC(C(=O)c2ccc(-c3ccccc3)cc2)C1 (configuration not stated) | inconclusive: 15.8 µM [inhibitor, single point] | –
46 | CN(C(=O)COC(=O)CNC(=O)c1sc2ccccc2c1Cl)c1ccccc1 | – | inactive: -13.8%

Row | Compound | Potency | activity, negative = inhibition
47 | COC(=O)c1ccc(NC(=S)NC2CCCCC2C)cc1 (configuration not stated) | inconclusive: 35.5 µM [inhibitor, single point] | –
48 | Cc1nonc1C1CCCN1C(=O)c1cc(COc2cccc(C(F)(F)F)c2)on1 (configuration not stated) | inconclusive: 35.5 µM [inhibitor, single point] | –
49 | O=C(CN1CCN(S(=O)(=O)c2cc(C(F)(F)F)ccc2Cl)CC1)N1CCc2ccccc2C1 | inconclusive: 11.2 µM [inhibitor, partial curve, poor fit] | –
50 | O=C(NCCc1ccccc1)c1ccc2c(c1)N(Cc1c(F)cccc1Cl)C(=O)CS2 | inconclusive: 6.31 µM [inhibitor, single point] | –
51 | Cc1ccc2nc(N(CCCN(C)C)C(=O)c3ccc(S(=O)(=O)N4CCc5ccccc5C4)cc3)sc2c1 | inconclusive: 20 µM [inhibitor, single point] | –
52 | COc1ccc(CCN(Cc2cccs2)S(=O)(=O)c2ccc(-n3cnnn3)c(OC)c2)cc1OC | inconclusive: 8.91 µM [inhibitor, partial curve, poor fit] | –
53 | Nc1nc(Sc2ccc([N+](=O)[O-])cc2[N+](=O)[O-])n[nH]1 | – | inactive: -6.36%
54 | CCc1nc2ccc(C(=O)NCc3ccc4c(c3)OCO4)cn2c1N(C)CCC(C)C | inconclusive: 22.4 µM [inhibitor, single point] | –
55 | Cc1ccc(CCNC(=O)C(NS(=O)(=O)c2ccc3c(c2)oc(=O)n3C)C(C)C)cc1 (configuration not stated) | – | inactive: 0.627%
56 | Cc1ccc(S(=O)(=O)N2[C@@H](c3cccc(Cl)c3)C(C(=O)O)=CC[C@H]2c2ccc(Cl)cc2)cc1 | inconclusive: 17.8 µM [inhibitor, single point] | –
57 | COc1ccccc1CN1C(=S)SC(C)(C)C1NO (configuration not stated) | – | inactive: 2.54%
58 | COc1ccc(COc2cc(-c3cccc(OC)c3)nc3ccc(NC(=O)c4ccc(Cl)cc4)cc23)cc1 | – | inactive: -2.53%
59 | COc1ccc(Cc2noc(-c3ccc(C)cc3)n2)cc1 | inconclusive: 35.5 µM [inhibitor, single point] | –
60 | CCn1c(SCC(=O)Nc2cc(Cl)ccc2OC)nnc1C1CC1 | – | inactive: 1.14%
61 | COc1ccc(C(C)=O)cc1CSc1nnc(-c2ccncc2)n1C | – | inactive: -0.832%
62 | COC(=O)c1cnc2c(c(C)nn2C)c1OC | – | inactive: -8.31%
63 | CN(C)S(=O)(=O)c1ccc(NC(=O)COC(=O)C2CC3CCCC(C2)C3=O)cc1 (configuration not stated) | – | inactive: 22.2%
64 | COc1cc2c(oc(=O)c3cc(C)cc(OC)c32)c2c(C3OC(C)C(O)C(C)(O)C3O)ccc(O)c12 (configuration not stated) | active: 7.08 µM | –
65 | Cc1cc(Cl)n2nc(C)c(-c3ccc(Cl)cc3)c2n1 | inconclusive: 35.5 µM [inhibitor, single point] | –
66 | O=C(Cn1cnc2ccccc2c1=O)Nc1nnc(C2CC2)s1 | inconclusive: 6.31 µM [inhibitor, single point] | –
67 | O=C(NCCc1ccccc1)c1sc2ncccc2c1-n1cccc1 | inconclusive: 11.2 µM [inhibitor, partial curve, poor fit] | –
